What all share (set-up): species or system human
Assay [1] concerns Matrix-associated proTGFβ1 vs Cell-associated proTGFβ1. Kind of assay: Octet binding, matrix vs cell bias (G/D). Particulars: ratio of cell average KD to ECM average KD. An excerpt:
(§1) Column (A) of the table provides monoclonal antibodies with discrete amino acid sequences. […] Columns (B), (C), (E) and (F) provide affinities of each of the listed antibodies, measured in KD, towards the antigen complex as indicated, respectively. […] Average KD values calculated from (B) and (C) are shown in the corresponding column (D), which collectively represents affinities of the antibodies to ECM- or matrix-associated proTGFβ1 complexes. Similarly, Average KD values calculated from (E) and (F) are shown in the corresponding column (G), which collectively represents affinities of the antibodies to cell-surface or cell-associated proTGF complexes. Finally, relative ratios between the average KD values from columns (D) and (G) are expressed as fold bias” in column (H). Thus, the greater the numerical of column (H) is, the greater bias exists for the particular antibody, when comparing binding preferences of the antibody for matrix-associated complexes to cell-surface complexes. This is one way of quantitatively representing and comparing inherent bias of antibodies to their target complexes. Such analyses may be useful in guiding the selection process for a candidate antibody for particular therapeutic use.
For orientation: In BLI a coated tip is dipped into the sample, and binding shifts an interference pattern.

The subject of a further assay is Cell-associated proTGFβ1. Kind of assay: Octet binding, cell average of hGARP and hLRRC33 complexes. The following applies: average KD of (E) and (F), read-out: (G) Cell AVRG.
Text: as §1

Assay [2] addresses Matrix-associated proTGFβ1. Kind of assay: Octet binding, ECM average of hLTBP1 and hLTBP3 complexes. Particulars: average KD of (B) and (C), read-out: (D) ECM AVRG.
Text: as §1

B1: Ab10: monoclonal antibody binding proTGFβ1 complexes; VH SEQ ID NO: 216, VL SEQ ID NO: 217 (antibody, V domains shown)
VH: EVQLLESGGGLVQPGGSLRLSCAASGFTFRNYAMSWVRQAPGKGLEWVSSISGSGGATYYADSVKGRFTISRDNSKNTLYLQMNSLRAEDTAVYYCARVSSGHWDFDYWGQGTLVTVSS
VL: DIQMTQSPSSLSASVGDRVTITCQASQDISNSLNWYQQKPGKAPKLLIYDASNLETGVPSRFSGSRSGTDFTFTISSLQPEDIATYYCQQAPNLPFTFGGGTKVEIK
For the molecule B1, the “(H) G/D (fold bias)” value in assay [1] is 19.38 fold. Also, the values for the Kd (in the assay with Cell-associated proTGFβ1; in assay [2]) were 5.63 nM and 0.29 nM, respectively.
